Test results taken from publication PMC4336329 (PLoS ONE, 2015).
The whole screen tested about 310,000 compounds, of which about 14,000 (4.5%) showed an effect of 50% or more. Effects have a minus sign here. The list shows a part of the results.
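Note: peak tail current of the secondary pulse compared with the same well before compound.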

These compounds were tested against human ether-à-go-go-related gene (hERG) potassium channel (human, UniProt Q12809) (assay: primary screen, population patch clamp on CHO cells stably expressing hERG).
human ether-à-go-go-related gene (hERG) potassium channel, sequence (Q12809 whole entry, looked up): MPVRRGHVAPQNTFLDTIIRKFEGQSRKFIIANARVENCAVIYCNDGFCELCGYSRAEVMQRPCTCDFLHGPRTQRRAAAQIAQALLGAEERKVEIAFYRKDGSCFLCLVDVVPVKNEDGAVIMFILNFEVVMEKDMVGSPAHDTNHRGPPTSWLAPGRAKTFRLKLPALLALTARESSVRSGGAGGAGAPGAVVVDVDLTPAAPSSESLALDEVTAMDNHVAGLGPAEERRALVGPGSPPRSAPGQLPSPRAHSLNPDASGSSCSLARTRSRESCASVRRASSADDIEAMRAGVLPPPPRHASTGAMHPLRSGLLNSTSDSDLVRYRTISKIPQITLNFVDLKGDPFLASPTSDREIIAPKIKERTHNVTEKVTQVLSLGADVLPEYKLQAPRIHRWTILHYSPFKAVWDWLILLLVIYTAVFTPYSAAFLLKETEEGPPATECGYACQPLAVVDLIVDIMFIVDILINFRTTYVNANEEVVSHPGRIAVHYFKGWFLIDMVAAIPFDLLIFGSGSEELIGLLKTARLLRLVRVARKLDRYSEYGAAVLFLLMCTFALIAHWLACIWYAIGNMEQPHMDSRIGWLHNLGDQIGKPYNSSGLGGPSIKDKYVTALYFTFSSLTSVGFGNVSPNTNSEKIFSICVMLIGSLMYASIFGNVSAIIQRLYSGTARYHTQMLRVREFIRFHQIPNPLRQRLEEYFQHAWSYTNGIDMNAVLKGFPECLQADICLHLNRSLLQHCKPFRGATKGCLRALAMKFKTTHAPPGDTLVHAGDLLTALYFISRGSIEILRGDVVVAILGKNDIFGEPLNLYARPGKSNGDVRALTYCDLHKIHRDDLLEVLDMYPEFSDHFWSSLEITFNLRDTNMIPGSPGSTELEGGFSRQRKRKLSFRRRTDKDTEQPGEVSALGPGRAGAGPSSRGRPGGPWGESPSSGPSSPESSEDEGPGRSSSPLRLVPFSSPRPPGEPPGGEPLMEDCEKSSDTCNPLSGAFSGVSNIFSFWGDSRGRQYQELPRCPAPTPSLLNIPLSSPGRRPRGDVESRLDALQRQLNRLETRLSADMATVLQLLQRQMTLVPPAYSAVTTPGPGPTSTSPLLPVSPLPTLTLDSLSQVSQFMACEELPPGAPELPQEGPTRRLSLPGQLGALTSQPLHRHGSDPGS
`Br.CCOC(=O)/C(C)=N/Nc1nc(-c2ccc(NC(C)=O)cc2)cs1` was tested, and the “hERG current change (%, negative = inhibition) at 10uM” value was 5.91%.
In the case of `O=C(OCc1nc2ccc(Cl)cc2n1CCO)c1ccccc1`, the “hERG current change (%, negative = inhibition) at 10uM” value is reported as -32.2%.
With `O=C1C2C3C=CC(CO)(O3)C2C(=O)N1c1ccccc1-c1ccccc1` (stereo not shown) the “hERG current change (%, negative = inhibition) at 10uM” value was -0.427%.
With `O=C(Nc1nnc(C(F)(F)F)s1)c1c(F)cccc1F` the “hERG current change (%, negative = inhibition) at 10uM” value was 18.8%.
In the case of `O=C(Cc1cccs1)Nc1nc(-c2ccccc2)cs1`, the “hERG current change (%, negative = inhibition) at 10uM” value is reported as -2.34%.
For `CC(C)(C)NC(=O)NC(=O)CN1CCN(S(=O)(=O)c2ccc3c(c2)CCCC3)CC1`, the “hERG current change (%, negative = inhibition) at 10uM” value was 12%.
For `CCOc1nc(-c2ccccc2)ncc1Oc1ccccc1`, the “hERG current change (%, negative = inhibition) at 10uM” value was 17.5%.
For `CCCn1ccc(O)c(Cc2ccc(Cl)cc2)c1=O`, the “hERG current change (%, negative = inhibition) at 10uM” value was 12.9%.
With `Cc1ccc(CN2CCN(CC(=O)N/N=C/c3ccccc3F)CC2)cc1` the “hERG current change (%, negative = inhibition) at 10uM” value was -66.4%.
In the case of `COc1ccc(C2=NOC(Cn3nc(C(=O)NCc4cccc(C(F)(F)F)c4)cc3-c3ccccc3)C2)cc1` (stereo not shown), the “hERG current change (%, negative = inhibition) at 10uM” value is reported as 6.61%.
In the case of `CCOC(=O)CC1(NC(=O)C2CCC(=O)N(Cc3ccccc3F)C2)CCCCC1` (stereo not shown), the “hERG current change (%, negative = inhibition) at 10uM” value is reported as -11.7%.
In the case of `O=C(O)c1ccccc1CSc1ncn[nH]1`, the “hERG current change (%, negative = inhibition) at 10uM” value is reported as 1.26%.
For `O=C1OCCC1Sc1nnc(-c2cccc(Br)c2)o1` (stereo not shown), the “hERG current change (%, negative = inhibition) at 10uM” value was 9.49%.
With `COCCSc1nnc(NC(=O)C2CCCCC2)s1` the “hERG current change (%, negative = inhibition) at 10uM” value was 4.08%.
In the case of `Cc1ccc(S(=O)(=O)Oc2ccc(/C=C(/NC(=O)c3ccccc3)C(=O)NCCCC(=O)O)cc2)cc1`, the “hERG current change (%, negative = inhibition) at 10uM” value is reported as 28.5%.
`C/C(=C\C(=O)c1ccccc1)Nc1ccc(Br)c(Cl)c1` was tested, and the “hERG current change (%, negative = inhibition) at 10uM” value was 11.8%.
For `O=C(Cn1cncn1)N/N=C/c1cccc2ccccc12`, the “hERG current change (%, negative = inhibition) at 10uM” value was -4.06%.
With `CC(=O)Nc1ccc(NC(=O)COC(=O)c2ccco2)cc1` the “hERG current change (%, negative = inhibition) at 10uM” value was 11.1%.
`COc1ccc(-n2c(O)c(C=Nc3ccccc3)c3ccccc3c2=O)cc1` was tested, and the “hERG current change (%, negative = inhibition) at 10uM” value was 9.14%.
With `C[C@@H]1CCCCCCCCCCC1=O` the “hERG current change (%, negative = inhibition) at 10uM” value was 19.6%.
For `Cc1cc(Br)c(NC(=O)Cn2c([N+](=O)[O-])cnc2C)cc1C`, the “hERG current change (%, negative = inhibition) at 10uM” value was 4.01%.
In the case of `O=C(O)c1cc(-c2ccc(/C=c3\sc4nc5ccc(Br)cc5n4c3=O)o2)ccc1Cl`, the “hERG current change (%, negative = inhibition) at 10uM” value is reported as 18.4%.
`COc1ccc(N2CCN(C3CCCN(Cc4cccc(C)c4)C3)CC2)cc1` (stereo not shown) was tested, and the “hERG current change (%, negative = inhibition) at 10uM” value was -32.8%.
`Cc1cc(/C=C\c2ccccc2)nc2ccccc12` was tested, and the “hERG current change (%, negative = inhibition) at 10uM” value was -4.46%.
For `CCOc1ccc(N2C(=O)CSC2=NC#N)cc1`, the “hERG current change (%, negative = inhibition) at 10uM” value was 8.44%.
In the case of `CSCCC(=O)NC1CCCN(CCc2ccccc2)C1` (stereo not shown), the “hERG current change (%, negative = inhibition) at 10uM” value is reported as -38.2%.
With `Nc1ccc2nc(-c3ccccc3)c(-c3ccccc3)nc2c1` the “hERG current change (%, negative = inhibition) at 10uM” value was -3.61%.
For `Cc1noc(/C=C/N(C)C)c1S(=O)(=O)N(C)CC(=O)N1CCc2ccccc21`, the “hERG current change (%, negative = inhibition) at 10uM” value was -10.7%.
In the case of `CCOc1ccc(/C=N/NC(=O)C(C)Sc2ccccn2)cc1OCC` (stereo not shown), the “hERG current change (%, negative = inhibition) at 10uM” value is reported as 8.67%.
`CC(C)[C@H](NC(=O)c1ccccc1Cl)C(=O)OCc1cc(=O)n2cc(Br)ccc2n1` was tested, and the “hERG current change (%, negative = inhibition) at 10uM” value was -33.7%.
With `CCOc1nc(NC(=O)NS(=O)(=O)Oc2ccccc2Cl)nc(-c2ccccc2)n1` the “hERG current change (%, negative = inhibition) at 10uM” value was 1.51%.
With `COc1ccc(CN(CC(=O)NC2CCCC2)C(=O)c2csnn2)cc1` the “hERG current change (%, negative = inhibition) at 10uM” value was -4.99%.
`COc1ccc(S(=O)(=O)N2CCCCC2)cc1NS(=O)(=O)c1ccccc1F` was tested, and the “hERG current change (%, negative = inhibition) at 10uM” value was -7.02%.
With `COc1ccccc1NC(=O)COC(=O)C1CC2C=CC1C2` (stereo not shown) the “hERG current change (%, negative = inhibition) at 10uM” value was -14.1%.
With `COc1ccc([N+](=O)[O-])cc1NCC(=O)c1ccc(C)cc1` the “hERG current change (%, negative = inhibition) at 10uM” value was 21.9%.
In the case of `CCCCOC(=O)C1CCCC(C)N1.Cl` (stereo not shown), the “hERG current change (%, negative = inhibition) at 10uM” value is reported as 9.98%.
`CCc1nonc1NC(=O)COc1cc(C)c(Cl)c(C)c1` was tested, and the “hERG current change (%, negative = inhibition) at 10uM” value was 14.7%.
In the case of `O=C(/C=C/c1ccc(O)cc1)c1c(O)cc(O)cc1O`, the “hERG current change (%, negative = inhibition) at 10uM” value is reported as 11.9%.
In the case of `O=C(Nc1cccc(NC(=O)c2ccc(F)cc2)c1)c1ccc(F)cc1`, the “hERG current change (%, negative = inhibition) at 10uM” value is reported as 17.5%.
`C/C(=N\NC(=O)C(=O)Nc1ccc(C)cc1)c1ccncc1` was tested, and the “hERG current change (%, negative = inhibition) at 10uM” value was -11.4%.
For `Cc1c(NC(=O)COC(=O)/C=C/c2ccc(Cl)cc2)c(=O)n(-c2ccccc2)n1C`, the “hERG current change (%, negative = inhibition) at 10uM” value was 28.5%.
`Cc1ccc(C(C)C)c(OCC(=O)NCC(c2cccs2)N2CCOCC2)c1` (stereo not shown) was tested, and the “hERG current change (%, negative = inhibition) at 10uM” value was -48.1%.
For `Cn1c(=O)n(-c2cccc(Cl)c2)c(=O)n1C`, the “hERG current change (%, negative = inhibition) at 10uM” value was 6.81%.
For `NC(=O)c1cc([N+](=O)[O-])ccc1NCCc1ccccc1`, the “hERG current change (%, negative = inhibition) at 10uM” value was 13%.
In the case of `CCOCCCNC(=O)C(NC(=O)c1ccccn1)c1ccc(C)cc1` (stereo not shown), the “hERG current change (%, negative = inhibition) at 10uM” value is reported as -0.00042%.
In the case of `O=C(COC(=O)c1ccc(=O)n(Cc2ccccc2)n1)Nc1ccc2c(c1)OCCO2`, the “hERG current change (%, negative = inhibition) at 10uM” value is reported as 11.5%.
`Cc1ccc(C=C2C(Cl)=C(Cl)C(Cl)=C2Cl)cc1` was tested, and the “hERG current change (%, negative = inhibition) at 10uM” value was 0.693%.
With `COC(=O)C1=C(c2cccc(OCc3ccccc3)c2)C[C@@H]2CC[C@H]1N2C(=O)NCc1cccc(C(F)(F)F)c1` the “hERG current change (%, negative = inhibition) at 10uM” value was 19.6%.
`COc1ccc(CN2CCN(Cc3ccc(CO)o3)CC2CCO)cc1C` (stereo not shown) was tested, and the “hERG current change (%, negative = inhibition) at 10uM” value was -8.64%.
For `Cc1ccc(NC(=O)COC(=O)CC2CCCC2)cc1Cl`, the “hERG current change (%, negative = inhibition) at 10uM” value was 6.56%.
`Cc1nc2ccccc2n1Cc1ccc(Br)cc1` was tested, and the “hERG current change (%, negative = inhibition) at 10uM” value was -16.4%.
With `Cc1cccc(COCC(Cc2ccccc2)N2CCN(C(=O)c3cccc(C)c3)CCC2=O)c1` (stereo not shown) the “hERG current change (%, negative = inhibition) at 10uM” value was -44.7%.
In the case of `CC(C)CNc1nc(N)c([N+](=O)[O-])c(NC2CCCCC2)n1`, the “hERG current change (%, negative = inhibition) at 10uM” value is reported as 7.31%.
For `CN(C)c1ccc(C(=O)c2ccc(N(C)C)c3ccccc23)cc1`, the “hERG current change (%, negative = inhibition) at 10uM” value was 0.727%.
With `CCCSc1nc(-c2ccccc2)cc(C(F)(F)F)c1C#N` the “hERG current change (%, negative = inhibition) at 10uM” value was -0.616%.
With `CSc1ncc(Cl)c(C(=O)Nc2ccccc2Cl)n1` the “hERG current change (%, negative = inhibition) at 10uM” value was 3.36%.
For `CCC(=O)c1ccc(OCC(O)CN2CCOCC2)cc1` (stereo not shown), the “hERG current change (%, negative = inhibition) at 10uM” value was 7.44%.
For `O=c1oc(-c2cccs2)nc2sc3c(c12)CCCC3`, the “hERG current change (%, negative = inhibition) at 10uM” value was -1.83%.
